This passage reports binding signal results from article PMC12136788.

This is one part of the list.

First the molecules themselves.
B1: chr14:23097777:23097878:+|CDS|ENSG00000179933|msi1|total|mutant (ssRNA)
RNA: GGGAGUUCUACAGUCCGACGAUCGAUGAAGUGUAUUCUUCACUGGUUUGCCAAUUGGUCAGGUCCCCAGCGUGAACGUUUCCCCGAGGACCUGGCCGCUAAGGCAGUGCCAGAAAAAUUACAACCACUGCUGGACCGUCUGGACAACAGAGGAUUGAGCAUCA
B2: chr8:35759345:35759454:+|CDS|ENSG00000156687|unk|FALSE|unique (ssRNA)
RNA: GGGAGUUCUACAGUCCGACGAUCCAUCAAGGUGGACAGCUCCUGGAAGAACCAAAAUUGCUGCAUUUCAAAGGGAAUACCUUUAGUCUUCAGAUUUCUGUCCUUGAUAUUCCCCCAUUCCUCUGGAGAAUUAAACCAUUCACUCAACAGAGGAUUGAGCAUCA
B3: chr2:86144366:86144519:-|CDS|ENSG00000132305|unk|total|mutant (ssRNA)
RNA: GGGAGUUCUACAGUCCGACGAUCAAACACAUUUAAAUUACUGUCAUAUGCUUCCUAUUGCAUUGAGCAUGGUGAUCUGGAGCCCGCAGCAAAGUUUGUCAAUCAGCUGAAGGGGGAAUCCAGACGAGUGGCACAGGACUGGCUCAACAGAGGAUUGAGCAUCA
B4: chrX:23682378:23682503:+|CDS|ENSG00000123131|unk|total|mutant (ssRNA)
RNA: GGGAGUUCUACAGUCCGACGAUCUUCAUUAUUGAUGACAAAGGAAUCCUAAGACAAAUUACUCUGAAUGAUCUUCCUGUGGGCCGAUCAGUGGAUGAGACACUACGUUUGGUUCAAGCAUUCCAGUACACUGACAAACACGGACAACAGAGGAUUGAGCAUCA
B5: ENSG00000058668:stop:overlap|stop_codon|ENSG00000058668|stop_codon|NA|stop_codon (ssRNA)
RNA: GGGAGUUCUACAGUCCGACGAUCCUUCUGUUCCUGCUGUUUCAUCUCCUCCUAUGGGCAAUCAAAGUGGUCAAAGCGUUCCAUAGUUCCCUCCACGAAAGCAUUCAGAAACCCUACAACCAAAAGUCCAUCCACAGCUUCAUGCAACAGAGGAUUGAGCAUCA
B6: chr14:73713276:73713377:-|CDS|ENSG00000176903|unk|total|mutant (ssRNA)
RNA: GGGAGUUCUACAGUCCGACGAUCGGGCAAAGGAGGGGUCUGGAAAGUGUUAUUUAAGCCCCCAACUUCUGAUGCUGAAUUUUCCGAAAGAUUGCACCUCUUCCCCGCCCGAGAGGGGUGGACCGUGCAAGAUGUUGCCCGUGUCAACAGAGGAUUGAGCAUCA
B7: ENSG00000107863:be:win_3401|CDS|ENSG00000107863|bound_else_gene|NA|bound_elsewhere_windowed (ssRNA)
RNA: GGGAGUUCUACAGUCCGACGAUCCAUUUGAGAAAAAGCCAACUGCUACAGGAACUUUCGGCGUCCGACUAGAUGACUGCCCACCAGCUCAUACUAAUCGGUAUAUUCCAUUAAUAGUUGACAUAUGUUGCAAAUUAGUUGAAGCAACAGAGGAUUGAGCAUCA
B8: chr1:206903316:206905147:-|three_prime_utr|ENSG00000162894|control|control|control (ssRNA)
RNA: GGGAGUUCUACAGUCCGACGAUCUCUGUGCCCUGAGCAUGGCUCUGCCCCCAGGUCGUCUUGCACACCUUGGCAGCCCCCUGUAGUUGACAGGUAAGCUGUAGGCAUGUAGAGCAAUUGUCCCAAUGCCACUUGCUUCCUUUCCAACAGAGGAUUGAGCAUCA
B9: ENSG00000164535:stop:overlap|stop_codon|ENSG00000164535|stop_codon|NA|stop_codon (ssRNA)
RNA: GGGAGUUCUACAGUCCGACGAUCGCAGUACAGGGACUUCAUCCACGUCAGCUUCCAUGACAAGGUUUACGAGCUGCCGUUUUUAGUGGCUCUGGAUCACAGGAAAGAGUCUGUUGUGGUCGCUGUGAGGGGGACCAUGUCUCUCAACAGAGGAUUGAGCAUCA
B10: chr5:6669452:6669553:+|3pUTR|ENSG00000145545|unk|FALSE|unique (ssRNA)
RNA: GGGAGUUCUACAGUCCGACGAUCCAUCUCAUCUGGAGUUUUUAAAUGCCAUUUGUUUCAGUUGUCUUUAACAACAUAAUAAAUAGACUUUGCCAUUUAACAAGGUAGCUCAAAUUCUUUUACUAAUUGUUACAUCGAAACAUUCAACAGAGGAUUGAGCAUCA
B11: ENSG00000107863:be:win_2251|CDS|ENSG00000107863|bound_else_gene|NA|bound_elsewhere_windowed (ssRNA)
RNA: GGGAGUUCUACAGUCCGACGAUCUUAAGGCAUCAGUCUUACAUCUUGGCAGUAAAUGACCAGGAGACCGGGUCAGACACUACCUGCUGGCUGCCCAAUGAUGCACGUCGAGAGGUCCACAUAAAAAGAAUGGAGGAAAGAAAACAACAGAGGAUUGAGCAUCA
B12: chr2:223975255:223975490:-|3pUTR|ENSG00000135919|msi1|total|mutant (ssRNA)
RNA: GGGAGUUCUACAGUCCGACGAUCUUUAAAUUCUUUUCCCCCAUCCCCCUCCAAAGUCUUGACCGCAAGCGUUAUUUUGGUGGCCGAAACGGUGAAAUCUCCCGCCUCUUUGUGUUUUUGUUGUUGUUGUUGUUGUUGUUUUAUCAACAGAGGAUUGAGCAUCA
B13: chr2:130338606:130338707:-|3pUTR|ENSG00000136710|unk|total|mutant (ssRNA)
RNA: GGGAGUUCUACAGUCCGACGAUCUACUCAGCCAAAAGAUCAGGACAAUAUGACUUGAGUCCACAAGGACACAAACACCUGAGCCGCUGGGCAGCCCUUGGCAGGGUCUAAGCCAGGAAGUAAAAAUGAUCUGGCCCCGAUAUUCAACAGAGGAUUGAGCAUCA
B14: chr1:71070866:71070979:-|CDS|ENSG00000132485|unk|total|mutant (ssRNA)
RNA: GGGAGUUCUACAGUCCGACGAUCGAGGAUGAAGAUGACGCUGAUCUCUCAAAAUAUAAUCUUGAUGCCAGUGAAGAAGAAGACCGUAAUAAAAAGAAAUCUAACCGACGAAGUCGCUCAAAGUCUCGAUCUUCACAUUCACGACAACAGAGGAUUGAGCAUCA

This experiment has as its target MSI1 full-length (mouse, UniProt Q61474 1-362). The experiment is described as follows: nsRBNS (natural sequence RNA bind-n-seq); RBNS binding buffer (assumed for nsRBNS): 25 mM Tris pH 7.5, 150 mM KCl, 3 mM MgCl2, 0.01% Triton X-100, 500 ug/ml BSA, 20 U/ml SUPERase-In, 4 C; UNK is unkempt and MSI1 is Musashi-1; names of the RNAs are library labels; protein concentration not given here; high values mean tight binding.
Chain of UniProt Q61474 (Q61474 whole entry): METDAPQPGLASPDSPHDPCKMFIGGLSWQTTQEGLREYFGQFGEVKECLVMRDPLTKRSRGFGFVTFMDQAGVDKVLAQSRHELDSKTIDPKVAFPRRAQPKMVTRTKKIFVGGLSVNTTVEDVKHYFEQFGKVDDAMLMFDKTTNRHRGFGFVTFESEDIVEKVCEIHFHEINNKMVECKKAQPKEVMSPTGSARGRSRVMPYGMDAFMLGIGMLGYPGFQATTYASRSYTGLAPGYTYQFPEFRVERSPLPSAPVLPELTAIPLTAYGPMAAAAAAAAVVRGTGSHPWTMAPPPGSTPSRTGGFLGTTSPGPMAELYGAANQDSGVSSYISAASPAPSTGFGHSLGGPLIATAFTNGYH
In turn, B1 came in with a binding signal of 0.253 enrichment R.
The same measure for B2: 0.287 enrichment R; for B3: 0.304 enrichment R.
Next, B4: 0.272 enrichment R; B5: 0.403 enrichment R.
B6 gave a binding signal of 0.592 enrichment R.
Take B7: the binding signal was 1.03 enrichment R.
Next, B8: 0.397 enrichment R; B9: 0.207 enrichment R.
Next, B10: 0.669 enrichment R; B11: 0.484 enrichment R.
Regarding B12, the binding signal amounted to 2.04 enrichment R.
B13 displayed a binding signal of 0.337 enrichment R.
In turn, B14 gave a binding signal of 0.372 enrichment R.
